# Reference: publication PMC4336329 (PLoS ONE, 2015)
# The campaign covered roughly 310,000 compounds. About 14,000 (4.5%) showed an effect of 50% or more. Effects have a minus sign here. This is one part of the list.
# Biological target: human ether-à-go-go-related gene (hERG) potassium channel (human, UniProt Q12809)
# Test: primary screen, population patch clamp on CHO cells stably expressing hERG
# 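Also: peak tail current of the secondary pulse compared with the same well before compound.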
# human ether-à-go-go-related gene (hERG) potassium channel, sequence (Q12809 whole entry, looked up): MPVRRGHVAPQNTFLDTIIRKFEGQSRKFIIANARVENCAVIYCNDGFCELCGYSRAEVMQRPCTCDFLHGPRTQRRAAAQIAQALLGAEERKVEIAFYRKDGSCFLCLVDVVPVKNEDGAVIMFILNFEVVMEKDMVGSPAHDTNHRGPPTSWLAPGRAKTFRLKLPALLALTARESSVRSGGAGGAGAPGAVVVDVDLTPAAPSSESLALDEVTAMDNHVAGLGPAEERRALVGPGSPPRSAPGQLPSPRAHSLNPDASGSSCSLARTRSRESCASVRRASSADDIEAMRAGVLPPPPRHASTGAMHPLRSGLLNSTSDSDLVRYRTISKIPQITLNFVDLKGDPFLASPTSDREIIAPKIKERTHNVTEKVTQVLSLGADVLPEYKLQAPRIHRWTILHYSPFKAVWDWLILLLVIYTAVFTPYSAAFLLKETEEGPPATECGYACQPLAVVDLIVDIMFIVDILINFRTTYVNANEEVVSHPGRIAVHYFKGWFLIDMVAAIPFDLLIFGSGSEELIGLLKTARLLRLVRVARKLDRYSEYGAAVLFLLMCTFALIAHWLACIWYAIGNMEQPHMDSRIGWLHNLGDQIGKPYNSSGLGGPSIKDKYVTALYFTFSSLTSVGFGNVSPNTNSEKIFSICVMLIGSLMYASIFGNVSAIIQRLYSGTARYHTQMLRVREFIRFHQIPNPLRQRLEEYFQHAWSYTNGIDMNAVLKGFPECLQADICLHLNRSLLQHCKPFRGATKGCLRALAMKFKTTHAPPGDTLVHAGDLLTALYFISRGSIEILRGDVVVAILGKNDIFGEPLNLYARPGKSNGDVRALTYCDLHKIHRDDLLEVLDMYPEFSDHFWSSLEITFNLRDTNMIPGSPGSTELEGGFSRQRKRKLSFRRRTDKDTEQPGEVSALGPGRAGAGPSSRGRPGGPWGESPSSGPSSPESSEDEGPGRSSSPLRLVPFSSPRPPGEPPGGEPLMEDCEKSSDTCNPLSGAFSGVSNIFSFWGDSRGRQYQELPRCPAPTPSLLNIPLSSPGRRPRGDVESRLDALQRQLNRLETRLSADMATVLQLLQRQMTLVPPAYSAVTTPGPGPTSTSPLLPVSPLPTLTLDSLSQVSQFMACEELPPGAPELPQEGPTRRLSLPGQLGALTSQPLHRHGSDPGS
row,SMILES,"hERG current change (%, negative = inhibition) at 10uM"
1,NC(=S)NN=C(c1ccccc1)c1ccccc1,-21.6%
2,Cc1ccc(NC(=O)C2=CC(c3ccc(C)cc3)=NS(=O)(=O)N2C)cc1,-22.2%
3,CN(C)S(=O)(=O)c1ccc(Cl)c(NC(=O)CN2CCC(Cc3ccccc3)CC2)c1,13.9%
4,CC(C)CNC(=O)c1cccc(NC(=O)c2ccc(NC(=O)c3ccco3)cc2)c1,-43.1%
5,COc1ccccc1CNS(=O)(=O)c1cccc(S(=O)(=O)N2CCOCC2)c1,-12.1%
6,CCCCCCOc1ccc(OC(=O)c2cccnc2)cc1,17%
7,Cc1csc(NC(=O)Cc2ccc(F)cc2)n1,21.1%
8,CC(Sc1nncn1C)C(=O)Nc1ccc(S(N)(=O)=O)cc1 (stereo not shown),15.7%
9,COc1cccc(NC(=S)N/N=C2\CC(C)(C)Oc3ccc(O)cc32)c1,3.3%
10,Cc1ccc(CNC(=O)c2ccc(C)s2)cc1,2.33%
11,Cc1cccc(NC(=S)N2CCN(S(=O)(=O)c3ccc(F)cc3)CC2)c1,16.7%
12,COc1ccc(CNS(=O)(=O)c2ccc(S(=O)(=O)NC3CC3)cc2)cc1,17.9%
13,O=C(NCCCc1ccc(F)cc1)C1CCC(=O)N(CCN2CCOCC2)C1 (stereo not shown),16.1%
14,CCOc1ccc(S(=O)(=O)N2CCOCC2)cc1NC(=O)c1ccc(N2CCCC2=O)cc1,14.1%
15,O=C(C1CC(c2ccc(F)cc2)=NO1)N1CCc2ccccc2C1 (stereo not shown),1.97%
16,Cn1c(NC(=O)c2cc(Br)ccc2Cl)cc(=O)n(C)c1=O,1.62%
17,CCOC(=O)N1CCC(N2CCN(Cc3ccc(F)c(F)c3)C(CCO)C2)CC1 (stereo not shown),-44.7%
18,O=C(CSc1ncnc2sccc12)Nc1ccccc1F,-10.7%
19,Cc1ccc(-n2c(SCC(=O)N/N=C/c3ccccc3C(=O)O)nnc2-c2ccccc2)cc1,8.57%
20,CSc1ccc(/C=C/C(=O)Nc2ccccc2)cc1,5.54%
21,C/C(=C\C(=O)c1ccccc1)Nc1ccc2c(c1)OCO2,-2.19%
22,O=C(COc1ccc(Cl)cc1Cl)NCCC1=CCCCC1,-24.2%

row,SMILES,"hERG current change (%, negative = inhibition) at 10uM"
1,Cc1ccc(Nc2ccc(-n3ccnc3)nn2)cc1C,-15.3%
2,Cc1ccccc1OCC(=O)OCC(=O)c1ccc(-c2ccccc2)cc1,11.3%
3,COc1ccc(N2CCN(C(=O)CSc3nnc4nc(C)cc(C)n34)CC2)cc1,-26.1%
4,Cc1ccc(/C=C2\SC(=S)N(NS(=O)(=O)c3ccc(C)cc3)C2=O)cc1,-1.18%
5,CN(C)c1nc(NN)nc(Nc2ccc(F)cc2)n1,12.9%
6,CCn1cnc2sc(C(=O)N3CCN(Cc4ccc5c(c4)OCO5)CC3)c(C)c2c1=O,6.41%
7,Cc1cc(C)cc(OC(=O)C23CCC(C)(C(=O)O2)C3(C)C)c1 (stereo not shown),-12.2%
8,CC(C)(C)c1ccc(C(=O)Nc2nnc(C3=COCCO3)o2)cc1,15.7%
9,COc1ccc(N2CCN(C(=O)CCNS(=O)(=O)c3cc(Br)cnc3N)CC2)cc1,-11.9%
10,Cc1nc2ccccc2n1CC(O)COC1CCCCC1 (stereo not shown),-8.21%
11,COc1ccc(-c2cc(C(=O)OC(C)C(=O)Nc3c(C)n(C)n(-c4ccccc4)c3=O)c3ccccc3n2)cc1 (stereo not shown),-36.2%
12,CC(O)COc1ccc(/C(=N/O)c2ccccc2)cc1 (stereo not shown),15.8%
13,CCN(C(=O)CSc1nnc(-c2ccco2)n1Cc1ccccc1)C1CCS(=O)(=O)C1 (stereo not shown),-20.6%
14,COC(=O)C(C)Sc1nc2c(cnn2-c2ccccc2)c(=O)[nH]1 (stereo not shown),5.35%
15,COC(=O)c1ccc(COC(=O)CNC(=O)CNC(=O)c2ccc(C)cc2)cc1,8.37%
16,Cc1ccc(-n2nnnc2SCC(N)=O)c(C)c1,17.9%
17,Cc1cc(C)n2nc(SCc3cc(=O)oc4cc(O)ccc34)nc2n1,-8.48%
18,N#Cc1ccc(NC(=S)NC(=O)CCc2ccc(S(=O)(=O)N3CCOCC3)cc2)cc1,0.205%
19,COc1cc(CNC2CCCCC2OC)cc(OC)c1OC (stereo not shown),-7.47%
20,O=C(Nc1c2c(nn1-c1ccc(F)cc1)CS(=O)C2)C12CC3CC(CC(C3)C1)C2 (stereo not shown),16.7%
21,O=C(Cn1cccc(C(F)(F)F)c1=O)c1ccc(Cl)cc1,-2.06%
22,COc1ccccc1/C=C/C=N/N1CCN(c2ccccn2)CC1,-2.4%

row,SMILES,"hERG current change (%, negative = inhibition) at 10uM"
1,Cc1ccccc1OCC(=O)N/N=C/C=C/c1ccccc1,13.4%
2,CN(Cc1ccccc1)Cc1nc2c(c(=O)n(C)c(=O)n2C)n1Cc1ccccc1Cl,-5.6%
3,Cc1cc(C)c(NC(=S)N(CCCN2CCN(C)CC2)Cc2cccs2)c(C)c1,-43.9%
4,COc1ccc2c(c1)CC/C2=N\OC(=O)c1ccccc1C,28.2%
5,Cc1ccc(OCCn2cnc3c2c(=O)n(C)c(=O)n3C)cc1,20%
6,CCn1c(CC(=O)Nc2ccccc2C)nnc1SCC(=O)NC1CCCC1,9.3%
7,Cc1ccc(C2=N/C(=C/c3cccs3)C(=O)N2Nc2ccccc2)cc1,3.7%
8,CCOC(=O)c1ccc(NC(=O)C(=O)NCc2ccncc2)cc1,-8.45%
9,CCN(CC)S(=O)(=O)c1ccc(C)c(NC(=O)COc2ccc3c(C)cc(=O)oc3c2)c1,12.2%
10,COc1ccc(S(=O)(=O)N2CCn3c2nc2ccccc23)cc1,-9.34%
11,COc1ccc(C)cc1S(=O)(=O)NC1CCCCCC1,6.25%
12,O=C(Nc1ccccc1-c1ccccc1)c1cc(C(F)(F)F)cc(C(F)(F)F)c1,6.05%
13,CC(C)Cn1cc(C(=O)N2CCC(C)CC2)c2c3ccccc3n(C)c2c1=O,-26.6%
14,CCN(c1ccccc1)S(=O)(=O)c1cc(C(=O)OC2CCOC2=O)ccc1C (stereo not shown),-17.5%
15,CCN=C1SC(C(=O)Nc2ccc(OC)cc2)CC(=O)N1CC (stereo not shown),9.22%
16,Cc1cc(/C=N/n2cnnc2)c(C)n1-c1cccc(Cl)c1,-22.2%
17,CCOC(=O)C1=NN(C(=O)COc2ccccc2)C(O)(c2ccc(Cl)cc2)C1 (stereo not shown),2.44%
18,O=C(COC(=O)/C=C/c1cccc(C(F)(F)F)c1)Nc1ccc(Cl)cn1,15.1%
19,COc1ccc(Cl)cc1NC(=O)Nc1cn(C)nc1C,8.86%
20,COc1cc(NC(=O)C23CC4CC(C2)CC(n2cnc([N+](=O)[O-])n2)(C4)C3)cc(OC)c1,-66.7%
21,Cc1noc(/C=C/N(C)C)c1S(=O)(=O)N1CCCC(C(=O)NC(C)c2ccccc2)C1 (stereo not shown),-7.54%
22,CCCCNCCOc1ccccc1-c1ccccc1.O=C(O)C(=O)O,-28.2%

row,SMILES,"hERG current change (%, negative = inhibition) at 10uM"
1,CCC(C(=O)NCC1CCCO1)N(Cc1ccccc1)C(=O)CNS(=O)(=O)c1ccccc1 (stereo not shown),-3.51%
2,CN(C)C(=O)Cn1c(SCC(=O)NC2CCCCC2)nc2ccccc21,7.7%
3,COc1ccc(-c2c3c(=O)n(C)c(=O)n(C)c3cn2-c2ccccc2O)cc1,-9.54%
4,COc1ccccc1NC(=O)CSC(N)=O,17.3%
5,CCc1ccc2c(c1)C(=O)C[C@]1(CCC[C@H](C)C1)O2,-13.8%
6,Nc1ccc2nc(CCc3ccccc3)[nH]c2c1,-13.1%
7,CSc1nnc(-c2ccco2)c(-c2ccco2)n1,2.75%
8,Cc1noc(C)c1COc1ccc(C(=O)OCC(=O)Nc2ccc3ccccc3c2)cc1,3.18%
9,O=C(Nc1nnc(CCN2CCOCC2)s1)C1CCCCC1,7.59%
10,CCOc1ccc(C2c3cc(OC)c(OC)cc3CC(=O)N2c2ccc(OC)cc2)cc1 (stereo not shown),-9.16%
11,CCCN(CC1CC1)CC(O)c1ccccc1.O=C(O)C(=O)O (stereo not shown),4.51%
12,COCC1CCN(C(=O)C2CCC(=O)N(CCc3cccc(F)c3)C2)CC1 (stereo not shown),6.39%
13,CCCCCCC(C)(C)c1ccc([C@@H]2C[C@H](O)CC[C@H]2CCCO)c(O)c1,-26.6%
14,O=C(O)C1CCCCC1C(=O)N1CC=C(c2ccccc2)CC1 (stereo not shown),-8.6%
15,CCCn1nc(C(=O)NNC(=O)C2CSC3(C)CCC(=O)N23)c2ccccc2c1=O (stereo not shown),5.35%
16,Fc1ccc(-c2cc(C(F)(F)F)nc(NCC3CCCO3)n2)cc1 (stereo not shown),-3.65%
17,O=C(CN1CCN(S(=O)(=O)c2ccccc2)CC1)Nc1ccc(Cl)cn1,-29.5%
18,O=C(NC1CCCC1)C(c1ccsc1)N(Cc1ccccc1)C(=O)Cc1cccs1 (stereo not shown),-29.9%
19,CC1CCN(C(=O)CSc2nnc(CNC(=O)COc3ccc(Cl)cc3)o2)CC1,-13.1%
20,COc1ccc(C(=O)Nc2cccc(-c3csc(C)n3)c2)cc1S(=O)(=O)N1CCCC1,-16.1%
21,CCOC(=O)CC1NCCc2c1[nH]c1ccc(OC)cc21.Cl (stereo not shown),-0.727%
22,CC(C1CCN(Cc2cn(C)nc2-c2cccc(Cl)c2)CC1)N1CCOCC1 (stereo not shown),-26.9%
